# Test results as given in patent US11178870B2 (priority 2017, dated 2021).
# Key:
# Phytophthora infestans = format: in vivo; conditions: Table 7, Test F
# [1] = test system: Colletotrichum orbiculare; conditions: 250 ppm sprayed (2.5 ml/pot) before inoculation; assessed 6 to 10 days after inoculation
# Magnaporthe grisea = format: in vivo; conditions: Table 7, Test A
Compound,"control value, Test F (late blight on tomato) (Phytophthora infestans)","control value, Test H (anthracnose on cucumber) [1]","control value, Test A (blast on rice) (Magnaporthe grisea)"
CCn1c(-c2ccc(F)cc2Cl)c(-n2cc(F)cn2)ccc1=O [Compound 327],L (L shows the control value of 50% or less),H (H shows the control value more than 50%),
CCn1c(-c2ccc(F)cc2Cl)c(-n2cc(F)cn2)cc(Cl)c1=O [Compound 328],L (L shows the control value of 50% or less),H (H shows the control value more than 50%),H (H shows the control value more than 50%)
CCn1c(-c2ccc(F)cc2Br)c(-n2ncc(C)c2Cl)cc(Br)c1=O [Compound 333],L (L shows the control value of 50% or less),H (H shows the control value more than 50%),H (H shows the control value more than 50%)
